# Measurements from ChEMBL document CHEMBL4888484, “Replenishing the malaria drug discovery pipeline: Screening and hit evaluation of the MMV Hit Generation Library 1 (HGL1) against asexual blood stage Plasmodium falciparum ,using a nano luciferase reporter read-out” (2022).
# Hit rate of the full screen: of about 150,000 compounds, about 540 (0.36%) showed an effect of 50% or more. This is one part of the list.
# System: Plasmodium falciparum
# Experiment: Primary screen in NF54 nanoGlo assay, in single point, at 2uM, 72h; a lower Z score goes with more inhibition
# Format: functional, Erythrocyte
# Conditions: timepoint 72 hour
SMILES,% Inhibition [%],Z score
C[C@H](NC(=O)NC1(CO)CCCCCC1)c1ccc(F)cc1F,-20,2.04
Cc1ccc(OCC(=O)N2CCC(n3nc(C4CC4)ccc3=O)CC2)c(C(C)(C)C)c1,-17,1.97
CNc1nc(C)cc(NCc2cc3cc(OC)ccc3[nH]2)n1,-3,0.71
CC(C)(C)c1ccc(C(O)CNC(=O)CC2CCCO2)cc1 (stereo unspecified),6,-0.64
C[C@@H](C(N)=O)N1CCOc2c(O)cc(-c3ccc(Cl)cn3)cc2C1,-11,2.11
Cc1nn(C)cc1CNc1nc2cc(C(F)(F)F)ccc2s1,-8,0.93
CC(C)(C)[C@H](NC(N)=O)C(=O)Nc1ccsc1,-13,1.27
O=C(NCc1ccncc1)c1ccc2c(=O)n(-c3cccc(Cl)c3)cnc2c1,-13,1.56
CCc1nnc2cc(N3CCN(Cc4cccs4)CC3)cnn12,-7,1.18
CN1C(=O)CN(CC(=O)N2CC[C@H]2c2ccc(F)cc2)C(=O)c2ccccc21,6,-0.98
CC(C)CC(C)(CC(=O)O)C(=O)N1CCCC1C1CCOCC1 (stereo unspecified),-14,1.48
CC1(C)C(=O)NCCN1C(=O)c1ccc(-c2cncnc2)cc1F,-7,1.24
O=C1CC[C@@]2(CCCN(C(=O)c3ccc[nH]3)C2)CN1Cc1ccncc1,4,-0.84
CC(C)c1nccc(C(=O)NCc2nccn2C)n1,-24,2.35
Cc1cncc(C(=O)N(Cc2nnc(C)o2)C(C)(C)C)c1,-4,0.42
CC(C)N(CCO)Cc1nc(C(F)(F)F)cs1,-13,1.44
CC(C)CN1CC2(CCN(C(=O)Nc3ccccc3Cl)CC2)CC1=O,-12,1.98
Cc1c(-c2cnn(C)c2)nc(N)c(C#N)c1-c1ccc(C(=O)O)cc1,-13,2.26
CCN(Cc1ccc(C(F)(F)F)cc1)[C@H]1CCNC1=O,-8,0.69
COc1ccc(NC(=O)C2[C@@H]3C=C[C@]4(O3)C(C(=O)NC3CCCCC3)N(C(C)c3ccccc3)C(=O)[C@H]24)cc1 (stereo partly specified),8,-1.22
COc1ccc2c(c1)CCCN(C(=O)Nc1ccn(CC#N)n1)C2,-4,0.39
CCCN(CC#N)CC(=O)NC(=O)Nc1ccccc1,-10,0.87

SMILES,% Inhibition [%],Z score
CC1(C)C[C@@](C)(c2ccccc2)c2ccccc2N1C(=O)COc1nc2ccccc2s1,-3,0.57
Nc1nc2c(c(N3CCc4nc(N)sc4C3)n1)CCCC2,-9,0.86
Cc1cccc2c(NCCS(C)(=O)=O)ncnc12,-8,1.43
Cn1nccc1CN1CCOc2ccc(F)cc21,-16,2.17
C[C@@H](c1c(F)cccc1F)S(=O)(=O)CC(=O)N1CCCc2ccccc21,-14,1.39
COc1cc(NC(=O)Cn2nc3c(cc2=O)CCC3)cc(OC)c1,-2,0.2
Cn1c(C(=O)NCc2ccc(Cl)cc2)nnc1N1CC2CCC(C1)O2,-3,0.42
COCc1c(C(=O)NC(C)(C)CO)cnn1-c1ncc2c(n1)-c1ccccc1CCC2,-10,1.69
O=C(COc1cccc(Cl)c1)N[C@@H](Cc1ncc[nH]1)c1ccccc1,-2,0.22
COc1cc(OC)cc(-c2nc(-c3ccc4c(c3)ncn4CCC(=O)N3CCCCCC3)no2)c1,-12,2
O=C(NCCC1CCN(C(=O)NC2CCCCC2)CC1)c1cccc(F)c1,-2,0.25
CC(C)c1ccc([C@H]2C[C@@H](C)Nc3nc(CO)nn32)cc1,-11,1.61
Cc1nc(N[C@@H](Cc2ccc(O)cc2)C(N)=O)c2c(C)noc2n1,-10,1.47
CC1CCCC(NC(=O)C2CCN(S(=O)(=O)c3ccc4nc5c(c(C(=O)O)c4c3)CCCC5)CC2)C1C (stereo unspecified),-8,1.21
CC[C@H](NC(=O)N1CC(Cc2cccc(C)c2)C1)c1nccs1,17,-2.22
CCc1noc([C@H](C)Oc2ccc3c(c2)CCCNC3=O)n1,-3,0.66
CC[C@@H](C(=O)Nc1ncccc1Br)c1c(C)noc1C,1,-0.18
O=C(NC1CCCCC1)N1CCC(CCNS(=O)(=O)c2ccc(F)c(Cl)c2)CC1,2,-0.36
O=C1C[C@H](c2ccc3c(c2)OCCO3)c2sc(Nc3ccccc3)nc2N1,28,-3.13
CN(CC(=O)Nc1cc(S(=O)(=O)N2CCCCC2)ccc1Cl)C1CCCCCC1,25,-2.81
CNC(=O)c1cc(O[C@H]2CCCN(c3ccnc(C)n3)C2)ccn1,7,-0.9
